# Assay results taken from article PMC4350111.
# Protein sequences, listed by entry. Tags and fused reporters are not part of them.
# UniProt Q99728: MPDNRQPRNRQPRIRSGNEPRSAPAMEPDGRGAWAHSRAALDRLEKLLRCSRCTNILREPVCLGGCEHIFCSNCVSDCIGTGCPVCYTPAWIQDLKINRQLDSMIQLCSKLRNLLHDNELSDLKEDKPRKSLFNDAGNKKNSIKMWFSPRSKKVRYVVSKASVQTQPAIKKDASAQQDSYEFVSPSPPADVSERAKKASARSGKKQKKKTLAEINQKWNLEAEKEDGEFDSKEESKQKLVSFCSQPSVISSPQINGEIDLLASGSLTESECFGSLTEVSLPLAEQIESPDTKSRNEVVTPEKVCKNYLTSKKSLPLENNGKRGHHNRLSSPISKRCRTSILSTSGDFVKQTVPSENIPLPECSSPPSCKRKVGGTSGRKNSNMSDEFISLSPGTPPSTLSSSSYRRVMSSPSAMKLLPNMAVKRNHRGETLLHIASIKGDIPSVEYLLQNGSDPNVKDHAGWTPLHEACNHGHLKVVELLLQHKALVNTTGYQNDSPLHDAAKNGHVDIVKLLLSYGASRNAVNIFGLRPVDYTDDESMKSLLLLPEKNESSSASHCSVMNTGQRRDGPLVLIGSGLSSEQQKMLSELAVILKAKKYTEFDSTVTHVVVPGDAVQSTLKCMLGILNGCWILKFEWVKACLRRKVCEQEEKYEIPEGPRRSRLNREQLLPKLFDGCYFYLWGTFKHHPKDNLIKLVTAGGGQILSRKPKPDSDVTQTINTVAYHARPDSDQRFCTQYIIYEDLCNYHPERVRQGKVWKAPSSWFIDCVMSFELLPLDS
# UniProt P03372: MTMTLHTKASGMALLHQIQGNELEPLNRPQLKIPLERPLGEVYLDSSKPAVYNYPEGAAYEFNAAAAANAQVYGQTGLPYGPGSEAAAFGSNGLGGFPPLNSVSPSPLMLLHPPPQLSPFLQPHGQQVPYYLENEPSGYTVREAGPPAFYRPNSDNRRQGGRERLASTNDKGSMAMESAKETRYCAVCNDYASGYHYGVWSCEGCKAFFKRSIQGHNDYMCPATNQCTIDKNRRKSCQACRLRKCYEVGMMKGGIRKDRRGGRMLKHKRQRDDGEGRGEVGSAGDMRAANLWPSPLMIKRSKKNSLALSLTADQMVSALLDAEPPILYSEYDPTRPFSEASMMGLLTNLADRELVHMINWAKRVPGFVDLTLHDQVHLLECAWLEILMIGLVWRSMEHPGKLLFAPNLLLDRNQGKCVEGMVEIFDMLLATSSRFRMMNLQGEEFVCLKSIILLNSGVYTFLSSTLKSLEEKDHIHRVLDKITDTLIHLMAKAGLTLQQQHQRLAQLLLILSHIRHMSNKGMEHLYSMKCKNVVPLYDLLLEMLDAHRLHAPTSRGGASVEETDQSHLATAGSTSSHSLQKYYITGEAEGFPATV
# Results are given in words; binding and its absence hold for the method and conditions named. In cells and extracts the contact can be indirect. Some binding calls cover weakened binding; strength is not graded here. Tags and fused reporters may be left off the sequences shown.
# Key:
# HA-BARD1 = HA-BARD1 (UniProt Q99728); assay: co-IP; tagged proteins transiently expressed in HEK 293T; immunoprecipitation by one tag, Western blot by the other (in some panels vice versa); in Fig. 2g, 4h and 4i cells treated with 10 μM MG132 for 8 h; in Fig. 4h FOXK2 overexpressed, in Fig. 4i FOXK2 knocked down by siRNA
# EGFP-ERα = EGFP-ERα (UniProt P03372); assay: as above
Binder,binding (HA-BARD1),binding (EGFP-ERα)
"Flag-tagged FOXK2 Δ2 (domain or fragment, UniProt Q01167 1-128) MAAAAAALSGAGTPPAGGGAGGGGAGGGGSPPGGWAVARLEGREFEYLMKKRSVTIGRNSSQGSVDVSMGHSSFISRRHLEIFTPPGGGGHGGAAPELPPAQPRPDAGGDFYLRCLGKNGVFVDGVFQ",binds,no binding
"Flag-tagged FOXK2 Δ3 (domain or fragment, UniProt Q01167 128-353) QRRGAPPLQLPRVCTFRFPSTNIKITFTALSSEKREKQEASESPVKAVQPHISPLTINIPDTMAHLISPLPSPTGTISAANSCPSSPRGAGSSGYKVGRVMPSDLNLMADNSQPENEKEASGGDSPKDDSKPPYSYAQLIVQAITMAPDKQLTLNGIYTHITKNYPYYRTADKGWQNSIRHNLSLNRYFIKVPRSQEEPGKGSFWRIDPASESKLIEQAFRKRRPR",no binding,binds
